Here are results for three compounds from PubChem BioAssay AID1379 (National Center for Advancing Translational Sciences (NCATS), 2008).

In all, about 200,000 compounds went through this assay and about 560 (0.28%) were called active. Calls follow the shape of the dose curve; as a rule, active = well fitted inhibition curve with a large enough effect; inconclusive = small, poorly fitted or top-dose-only effect; inactive = flat fitted curve, though single readings scatter. This is a selection; strong and weak results do not stand in their true shares.
% is scaled to controls: 0 for no effect and ±100 for the full control effect.

The test concerns the target Luciferin 4-monooxygenase (Photuris pensylvanica) (UniProt Q27757). The test can be described thus: Counterscreen for Luciferase (Kinase-Glo TM) Inhibition. Also: nearly all actives have a fitted effect of over 60% in size. The following applies: ATP luminescence, 8 min; at 38.3 µM (top of the series) unless noted. Here is the method: NCGC Assay Overview: NIH Molecular Libraries Screening Centers Network [MLSCN] NIH Chemical Genomics Center [NCGC] MLSCN Grant: None Luciferase (Kinase-Glo, Promega Corporation) was assayed for its ability to generate light using ATP and luciferin as substrates. The ATP concentration in the assay (10 uM) was within the linear range of enzyme activity for the assay conditions used.
NCGC Assay Protocol Summary: Four uL of substrate mix (final concentration, 50 mM imidazole pH 7.2, 50 mM KCl, 7 mM MgCl2, 10 uM ATP, 0.01% Tween 20, 0.05% BSA) was dispensed into white 1536 well plates. Twenty-three nL of compound was delivered by a pin tool and 2 uL of luciferase detection mix (Kinase-Glo, Promega)) was added. Following 8-minute incubation at ambient temperature, luminescence was measured by a ViewLux (Perkin Elmer) at 5 seconds exposure/plate.
On the technique in general: A counterscreen serves to expose hits that act by an unwanted route or on another target.
For the compound `Nc1nc(=S)c2ncn([C@H]3O[C@@H](CO)[C@@H](O)[C@@H]3O)c2[nH]1`, the activity change, negative = inhibition is inactive: 0.173% [at 17.1 µM]. For `CNC(C)[C@@H](O)c1ccccc1` (stereo partly drawn) the value was inactive: 0.408%; for `NC(N)=Nc1ccc2[nH]c3c(c2c1)C[C@@]1(O)[C@H]2Cc4ccc(O)c5c4[C@@]1(CCN2CC1CC1)[C@H]3O5`, inactive: 37.7%.
